PubChem BioAssay AID588342 (National Center for Advancing Translational Sciences (NCATS), 2011)
The whole screen tested about 360,000 compounds, of which about 25,000 (6.9%) were called active. This list was built around the results that the source calls inconclusive (neither active nor inactive); the mix of calls is not that of the screen. Calls come from the whole dose curve; as a rule, active = well fitted inhibition curve with a large enough effect; inconclusive = small, poorly fitted or top-dose-only effect; inactive = flat fitted curve, though single readings scatter. Potencies beside an inconclusive call are fits to weak or partial responses and may not hold up.

The compounds below were run against Luciferin 4-monooxygenase (Photinus pyralis) (UniProt P08659) (assay: qHTS profiling assay for firefly luciferase inhibitor/activator using purifed enzyme and Km concentrations of substrates (counterscreen for miR-21 project)). Settings: purified FLuc, luminescence inhibition; series mostly up to 57.5 µM.
Sequence of UniProt P08659 (P08659 whole entry, looked up): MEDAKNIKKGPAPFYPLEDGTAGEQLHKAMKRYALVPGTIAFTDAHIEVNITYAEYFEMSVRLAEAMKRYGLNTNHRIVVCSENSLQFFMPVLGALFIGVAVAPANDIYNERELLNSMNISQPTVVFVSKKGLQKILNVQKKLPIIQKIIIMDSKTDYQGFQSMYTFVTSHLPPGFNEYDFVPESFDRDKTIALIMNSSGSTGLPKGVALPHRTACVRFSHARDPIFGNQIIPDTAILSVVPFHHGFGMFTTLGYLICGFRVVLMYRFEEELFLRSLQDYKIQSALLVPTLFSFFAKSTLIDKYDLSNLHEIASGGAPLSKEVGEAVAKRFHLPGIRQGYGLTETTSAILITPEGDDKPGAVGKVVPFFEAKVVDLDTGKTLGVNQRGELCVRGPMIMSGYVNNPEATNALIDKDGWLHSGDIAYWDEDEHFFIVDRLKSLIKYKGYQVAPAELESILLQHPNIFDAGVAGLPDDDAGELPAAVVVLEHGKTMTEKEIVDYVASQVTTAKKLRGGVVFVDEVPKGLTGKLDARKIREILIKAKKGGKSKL
Method in brief: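 Biochemical qHTS of compounds, final roughly 60 µM downward over six points, against 10 nM purified firefly luciferase using Km concentrations of substrates (10 uM D-luciferin, 10 uM ATP) in Tris acetate pH 7.5 buffer; luminescence output.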
Note: nearly all actives have a fitted effect of over 55% in size.
Potency is the fitted concentration of half-maximal effect; tags give direction and shape of the fitted curve.

Structure (SMILES) | Potency
CC(C)c1ccc(NC(=O)CSC2=Nc3ccccc3C3=NC(CC(=O)NCc4ccc(F)cc4)C(=O)N23)cc1 (stereo unspecified) | inactive
Cc1ccc(CC(=O)NCC2CCCCC2)cc1 | inconclusive: 37.9 µM [inhibitor, partial curve, poor fit]
CSc1nsc(N/N=C/c2ccccc2)c1C#N | inconclusive: 30.1 µM [inhibitor, partial curve, poor fit]
Cc1cc(C(=O)CSc2nc3ccc(Cl)cc3[nH]2)c(C)n1C | inactive
Cc1cc(C)nc(NC(=S)Nc2cccc(F)c2)c1 | inconclusive: 4.26 µM [inhibitor, partial curve, poor fit]
O=C(/C=C/c1ccc(Cl)cc1)NC(=S)Nc1ccc(N2CCOCC2)c(Cl)c1 | inconclusive: 13.5 µM [inhibitor, partial curve, poor fit]
Cc1ccc(Cl)cc1N1CCN(C(=O)C2CCCN(S(=O)(=O)c3ccc(Br)s3)C2)CC1 (stereo unspecified) | inactive
CCOC(=O)C1(CC2CC2)CCN(C(=O)c2ocnc2C)CC1 | inconclusive: 21.3 µM [inhibitor, single point]
c1ccc(Oc2ccc3ccccc3n2)cc1 | active: 16.9 µM
Cc1ccc2nc(-c3ccc(Cl)c(NC(=O)c4cccnc4)c3)oc2c1 | active: 0.601 µM
Cc1oc2ccc(OCc3ccc(Cl)cc3)cc2c1C(=O)O | inconclusive: 37.9 µM [inhibitor, single point]
CCOC(=O)c1ccc(NC(=O)CSc2n[nH]c(-c3ccncc3)n2)cc1 | inconclusive: 16.9 µM [inhibitor, partial curve]
CCOc1ccc(NC(=O)CSc2nccn2-c2cccc(C)c2C)cc1 | inactive
Clc1ccc(-c2cn3cccnc3n2)cc1Cl | active: 16.9 µM
Cc1ccc(NC(=O)COC(=O)c2ccnn2C)cc1 | inconclusive: 23.9 µM [inhibitor, partial curve, poor fit]
CCOc1ccc(CCNC(=O)Cn2ccc3cc(S(=O)(=O)N4CCCCCC4)ccc32)cc1 | inactive
COc1cccc(NC(=O)CN(C)C(=O)CCCNC(=O)c2ccc(Cl)cc2)c1 | inconclusive: 23.9 µM [inhibitor, partial curve, poor fit]
COc1cccc(-n2c(=S)[nH]c3c(oc4ccccc43)c2=O)c1 | inconclusive: 15.1 µM [inhibitor, partial curve]
N=C1SCC(=O)N1c1nc(-c2ccccc2)cs1 | active: 5.36 µM
Cn1c(CN2CCOCC2)nc2cc(NC(=O)COc3ccc([N+](=O)[O-])cc3)ccc21 | inactive
O=C(c1ccccc1F)N1CCN(S(=O)(=O)c2ccc(S(=O)(=O)N3CCCCCC3)cc2)CC1 | inactive
Cc1ccc(C(=O)/C=C/Nc2ccc([N+](=O)[O-])cc2Br)cc1 | active: 0.338 µM
COc1ccccc1NC(=O)c1ccc(N2CC3CC(C2)c2cccc(=O)n2C3)c(NC(=O)c2cccnc2)c1 (stereo unspecified) | inactive

Structure (SMILES) | Potency
O=c1c2c(C(F)(F)F)cc(C(F)(F)F)nc2[nH]n1-c1ccccc1 | inactive
O=C1C=CC(=O)C(C2=C3C(=O)N(CCc4ccccc4)CC(=O)N3CCC2)=C1 | inconclusive: 3.79 µM [inhibitor, full curve]
O=C(CCc1ccc(O)c(O)c1)N/N=C/c1ccc2c(c1)OCO2 | inconclusive: 33.8 µM [inhibitor, partial curve, poor fit]
COc1ccc(-c2nn(-c3ccccc3)cc2/C=C\C(=O)Nc2ccc(C(=O)O)cc2)cc1 | active: 15.1 µM
O=C(c1cccc(NS(=O)(=O)c2cccc(C(F)(F)F)c2)c1)N1CCOCC1 | inactive
COc1ccc(C(=O)Nc2nnc(SCC(=O)NC3CC3)s2)cc1 | active: 1.2 µM
Cc1cccc(C)c1OCc1cc(C(=O)N2CC3C[C@@H]4CC2C[C@H](C3)C4)no1 | inconclusive: 2.39 µM [inhibitor, partial curve]
O=C(O)COc1ccc2c(c1)CCCC2 | inactive
O=C(NN/C(=N/S(=O)(=O)c1ccc(Cl)cc1)c1ccccc1)c1ccc(O)cc1 | active: 15.1 µM
O=C(O)c1cc(N/N=C/c2cccc3ccccc23)ccc1Cl | active: 7.57 µM
COC(=O)c1sc(NC(=O)c2c(-c3ccccc3)noc2C)nc1C | inconclusive: 16.9 µM [inhibitor, partial curve]
Cc1cc(N=Nc2c(O)c3ccccc3[nH]c2=O)ccc1N=Nc1ccc(C(=O)N(C)C)cc1 | inconclusive: 16.9 µM [inhibitor, partial curve]
Cc1ccsc1/C=C1\SC(N2CC(C)OC(C)C2)=NC1=O (stereo unspecified) | inconclusive: 21.3 µM [inhibitor, partial curve, poor fit]
COc1ccc(C(=O)CSc2nnc(-c3ccco3)c(-c3ccco3)n2)cc1 | inconclusive: 9.53 µM [inhibitor, partial curve]
O=C(COC(=O)c1cccs1)NCc1ccc2c(c1)OCO2 | inconclusive: 21.3 µM [inhibitor, single point]
C/C(=N\O)c1ccc2c3c([nH]c2c1)CCCC3 | active: 10.7 µM
COc1ccc(NC(=O)CSc2nnc(-c3nonc3NC(C)=O)n2C)cc1Cl | inactive
COc1ccc(-c2cc(C(=O)N3CCN(c4ccccc4O)CC3)c3ccccc3n2)cc1OC | active: 9.53 µM
Cc1ccccc1-n1c2nc(=O)[nH]c(=O)c-2cc2c(Cl)cccc21 | inactive
O=c1cc2nc(-c3ccccc3F)nc(SCc3ccc(Br)cc3)n2[nH]1 | inconclusive: 15.1 µM [inhibitor, partial curve, poor fit]
CCCCn1nc(C(=O)NNC(=O)c2ccncc2)c2ccccc2c1=O | inconclusive: 37.9 µM [inhibitor, single point]
CC(=O)Nc1nonc1NC(=O)c1ccc(C(C)(C)C)cc1 | inconclusive: 15.1 µM [inhibitor, partial curve]
Cc1ccccc1/C=C1\Sc2ccc(C(=O)N3CCN(c4ccccn4)CC3)cc2N(C)C1=O | inconclusive: 21.3 µM [inhibitor, partial curve, poor fit]
